Data as given in PubChem BioAssay AID463173 (ICCB-Longwood Screening Facility, Harvard Medical School, 2010).
Screen size: about 52,000 compounds; about 1,700 (3.3%) were called active. Rule as the data show it: active = survival mostly below about 52% (no sharp cut-off); inactive = mostly above about 56%. The list shows a part of the results.

tested on: Wild type; assay: S. aureus survival, RN4220 and DeltatarO strains – OD600, teichoic acid synthesis inhibitors, primary screen (AID 463173); details: S. aureus RN4220 wild type/DeltatarO growth, OD600, 18 h, hits give low values, screened at 18.75 µg/mL (by protocol)

Structure (SMILES) | survival
COc1ccc(CNS(=O)(=O)c2cc3c4c(c2)CCN4C(=O)CC3)cc1 | inactive: 133%
O=C(CSc1nc2c([nH]c3ccccc32)c(=O)n1-c1cccc(Cl)c1)NCC1CCCO1 (stereo not drawn) | inactive: 131%
Cc1ccc(COc2ccc(-c3cc(C(F)(F)F)n4nc(C)cc4n3)cc2)cc1 | inactive: 126%
Fc1ccc(-c2ccc(CNCCSc3nnnn3-c3ccccc3)o2)cc1 | inactive: 35%
O=S(=O)(Nc1nc2ccccc2nc1Nc1ccccc1Br)c1ccccc1 | inactive: 122%
CC1CCc2c(sc(NC(=O)c3cc(-c4cccc(Cl)c4)on3)c2C(N)=O)C1 (stereo not drawn) | inactive: 95%
Cc1ccc(NC(=O)Cc2coc3ccc(C(C)C)cc23)c(C)c1 | inactive: 91%
COc1cccc(CNC(=O)C(C)n2ncn3cccc3c2=O)c1OC (stereo not drawn) | inactive: 88%
O=C(Cn1c2ncccc2c(=O)n1-c1ccccc1)NCc1ccccc1Cl | inactive: 86%
CCOc1ccc(-c2cn(-c3ccc(C)cc3)c(SCC(=O)Nc3ccc(C)cc3)n2)cc1 | inactive: 73%
O=C(O)c1c(Cl)c(Cl)c(Cl)c(Cl)c1C(=O)N1CCCC1 | inactive: 95%
OC1(C#CCN2CCCCCC2)CCCCC1 | inactive: 108%
O=C(CSc1oc(-c2ccco2)nc1S(=O)(=O)c1ccc(Br)cc1)c1ccccc1 | inactive: 65%
CCC(=O)C1=C(c2ccc(Cl)cc2)N(C(=O)CC)n2c(C)nnc2S1 | inactive: 120%
CCS(=O)(=O)c1ccc(O)c(Nc2cc(C)nc(SC)n2)c1 | inactive: 102%
Cc1ccc(S(=O)(=O)C(CNC(=O)c2ccc(F)c(F)c2)c2ccco2)cc1 (stereo not drawn) | active: -6%
CCC(C)Cn1c(/C=C/c2ccccc2)nc2ccccc21 (stereo not drawn) | active: 1%
CCCCn1c(=O)c2oc3ccccc3c2n(Cc2cccc(F)c2)c1=O | inactive: 82%
Nc1cc(N)nc(SCC(=O)N2CCCCC2)n1 | inactive: 88%
Cc1cc(C)cc(NC(=O)c2ccc3c(c2)nnn3C2CCCC2)c1 | inactive: 121%
Cc1ccc(CNC(=O)CCN2C(=O)COc3ccc(C)cc32)cc1 | inactive: 82%
CCc1nnc2c(Nc3cccc(F)c3)nc3ccc(C(=O)c4ccccc4)cc3n12 | inactive: 79%

Structure (SMILES) | survival
CCOC(=O)c1cccc(NC(=O)c2cc3c(=O)n(C)c4ccccc4c3n2C)c1 | inactive: 69%
CCC(=O)c1cc2c(cc1NC(=O)c1cccc(Cl)c1)OCCO2 | inactive: 113%
CCN(CC)CCOC(=O)c1ccc(NC(=O)c2nn(C)c3c2COc2ccccc2-3)cc1 | inactive: 77%
O=C(c1cc(-c2cccc(Cl)c2)on1)N1CCN(c2ccccc2)CC1 | active: 4%
CC(C)c1cnc2c(c1SCC(=O)Nc1ccc(OC(F)(F)F)cc1)c(=O)n(C)c(=O)n2C | inactive: 74%
O=C(CCCN1C(=O)c2cccnc2Oc2ccc(Cl)cc21)NCc1ccccc1F | inactive: 70%
CC1CCN(S(=O)(=O)c2nnc(NC(=O)c3ccc(C(C)C)cc3)s2)CC1 | inactive: 79%
Cc1ccc(NC2=C(CC(=O)O)C(c3ccc(F)cc3)N(c3ccc(C)cc3)C2=O)cc1 (stereo not drawn) | inactive: 74%
COc1ccc(NC(=O)c2c(NCc3ccc(N(C)C)cc3)sc3c2CCC3)cc1 | inactive: 71%
CCc1ccc(N2CCn3c2nc2c3c(=O)n(C/C=C/c3ccccc3)c(=O)n2C)cc1 | inactive: 79%
Cc1ccc(CNC(=O)CC(C)CC2=NS(=O)(=O)c3ccccc3N2)cc1 (stereo not drawn) | inactive: 72%
CCOc1ccccc1NC(=O)N(Cc1ccc(F)cc1)C1CCN(CC)CC1 | inactive: 47%
O=C(CC1CCCCC1)NCc1ccco1 | inactive: 106%
Cc1ccsc1CN(C(=O)c1oc2ccc(F)cc2c1C)C1CCS(=O)(=O)C1 (stereo not drawn) | inactive: 82%
CCOc1ccc(-c2nonc2NC(=O)c2oc3cc(C)c(C)cc3c2C)cc1OCC | inactive: 91%
Cc1ccc(NC(=O)C2CCCN2S(=O)(=O)c2cccc3nsnc23)c(C)c1 (stereo not drawn) | inactive: 90%
CCC(C)c1ccc(NC(=O)C2CCCN(c3ncccn3)C2)cc1 (stereo not drawn) | inactive: 108%
Cc1ccc(Nc2ncc(C(=O)N3CCN(c4ccc(F)cc4)CC3)c3ccccc23)cc1Cl | inactive: 105%
CCc1ccc(NC(=O)c2ccc(F)c(S(=O)(=O)N3CCC4(CC3)OCCO4)c2)cc1 | inactive: 82%
COc1cccc(CNS(=O)(=O)c2cc3[nH]c(=O)c(=O)[nH]c3cc2C)c1 | inactive: 60%
Cc1ccc(C)c(-n2c3nc(=O)[nH]c(=O)c-3cc3c(C)nn(-c4ccccc4)c32)c1 | inactive: 89%
COc1ccc2o/c(=N\O)c(C(N)=O)cc2c1 | inactive: 97%

Structure (SMILES) | survival
CCOC(=O)c1ccc(N2C(=O)c3n[nH]c(C)c3C2c2ccccc2OC)cc1 (stereo not drawn) | inactive: 79%
N#Cc1ccc(C(=O)NCc2ccc3c(c2)CCN3C(=O)c2ccc(F)cc2)cc1 | inactive: 59%
Cc1ccccc1Cn1c2ccccc2c2cnn(CC(=O)NC(C)CCc3ccccc3)c(=O)c21 (stereo not drawn) | inactive: 77%
CCc1ccc2oc(C(=O)Nc3c(C)n(C)n(-c4ccccc4)c3=O)cc(=O)c2c1 | inactive: 105%
COC(=O)c1ccc(NC(=O)CN(CCc2ccccc2)S(=O)(=O)c2ccc(OC)cc2)cc1 | inactive: 68%
Cc1cccc(CCNc2ncnc3onc(-c4ccc(Cl)cc4)c23)c1 | inactive: 27%
Cc1[nH]c2ccc(-c3nnc(SCC(=O)N4CCCC4)o3)cc2c1C | inactive: 101%
Cc1cccc(Cn2nc(C)n3c(cc4cc(C)ccc43)c2=O)c1 | inactive: 79%
CCOc1ccc(C(=O)NCCc2sc(-c3ccc(OC)c(OC)c3)nc2C)cc1 | inactive: 129%
Cc1ccccc1OCC(=O)Nc1sc2c(c1C(=O)OC(C)C)CCCC2 | inactive: 69%
Cc1ccc(C)c(N2CCN(C(=O)c3cc(C)nc4c3c(C)nn4-c3cccc(F)c3)CC2)c1 | active: 0%
Cc1ccc(C)c(N2CCN(c3ccc4cc(S(=O)(=O)N5CCC(C)CC5)ccc4n3)CC2)c1 | inactive: 100%
CCOc1ccc(-n2c(SCC(=O)N3CCC(C)CC3)nc3c([nH]c4ccccc43)c2=O)cc1 | inactive: 68%
CN1C=CC=C/C1=C1\SC(=S)N(C2CCCCC2)C1=O | inactive: 120%
CCn1c(C(=O)NCc2ccc(OC(C)C)cc2)cc2oc3ccccc3c21 | inactive: 20%
CC1CCC(C(C)C)C(OC(=O)Cn2nnc3c(cnn3-c3ccccc3)c2=O)C1 (stereo not drawn) | inactive: 114%
Cc1ccc2c(c1)c(=O)c1ccccc1n2CCCC(=O)Nc1cc(Cl)ccc1C | inactive: 123%
Cc1oc2ccc(O)c(CN3CCN(C)CC3)c2c1C(=O)Nc1cccc(Cl)c1C | inactive: 82%
Cc1cccc(N2C(=O)C(CC(=O)Nc3ccc(Cl)cc3)N(Cc3ccco3)C2=O)c1 (stereo not drawn) | inactive: 78%
CCCOc1ccc(C(=O)Nc2cc3c(cc2N2CCOCC2)n(C)c(=O)n3C)cc1 | inactive: 142%
Cc1cccc(-n2c(=O)c3c(c4cc(C)ccc4n3C)n(CC(=O)NCC3CCCO3)c2=O)c1 (stereo not drawn) | inactive: 86%
Cc1oc(-c2cccc(Cl)c2)nc1CS(=O)(=O)CC(=O)NCc1ccccc1Cl | inactive: 75%

Structure (SMILES) | survival
Cc1nn(CC(=O)O)c(=O)c2cc3cc(F)ccc3n12 | inactive: 122%
O=C(Nc1cc(Cl)cc(Cl)c1)c1ccc2c(c1)N(Cc1cccc(Cl)c1)C(=O)c1ccccc1S2=O (stereo not drawn) | inactive: 88%
COC(=O)c1ccc(C2c3c(oc4ccccc4c3=O)C(=O)N2c2nc(C)c(C(=O)OC)s2)cc1 (stereo not drawn) | inactive: 67%
COc1ccccc1NC(=O)c1cc(S(=O)(=O)N2CCN(c3ccccc3Cl)CC2)ccc1F | inactive: 66%
COc1ccc2c(CNCc3cccs3)c(C(=O)O)n(Cc3ccc(C)cc3)c2c1 | inactive: 85%
COc1ccc(NC(=O)Cn2c(=O)n(Cc3nc(-c4ccccc4)no3)c(=O)c3cc4c(cc32)OCO4)c(OC)c1 | inactive: 78%
O=C(Nc1ccc2oc(-c3cccnc3)nc2c1)c1ccc(Br)cc1 | inactive: 76%
Cc1nn(CC(=O)NCc2ccc(Cl)cc2)c(=O)c2cc3sccc3n12 | inactive: 127%
COC(=O)c1scc(-c2ccc(C)cc2)c1S(=O)(=O)Nc1ccc(F)cc1F | inactive: 72%
Cc1ccc(CN2CCCn3nc(C(=O)NC(C)C)cc3C2=O)cc1 | active: -2%
Cc1ccc(N2CCN(S(=O)(=O)c3cc(C(=O)Nc4cc(Cl)cc(Cl)c4)ccc3F)CC2C)cc1 (stereo not drawn) | inactive: 71%
CC(=O)c1ccc(NC(=O)C2Cc3ccccc3N2C(=O)c2ccccc2)cc1 (stereo not drawn) | inactive: 153%
CC(=O)Nc1nonc1-c1nnc(SCC(=O)Nc2cccc(F)c2)n1-c1ccccc1 | inactive: 27%
Cc1ccc(-n2c(SCC(N)=O)nc(O)c(C)c2=O)cc1 | inactive: 113%
COc1ccc(C)cc1NC(=O)Cn1c(=O)c(C(F)(F)F)nc2ccccc21 | inactive: 87%
CN(C)S(=O)(=O)c1ccc2c(c1)N(CC(=O)NCc1ccc(F)cc1)C(=O)CS2 | inactive: 146%
COc1ccccc1N1CCN(c2ccc(=O)n(CC(=O)NCc3ccc(OC(C)C)cc3)n2)CC1 | inactive: 89%
Cc1ccc(NC(=O)Cn2cc3c(n2)CCCC3)c(Cl)c1 | inactive: 93%
COc1ccc(Oc2c(C(F)(F)F)oc3c(CN4CCCC(C)C4)c(O)ccc3c2=O)cc1 (stereo not drawn) | inactive: 67%
Cc1nn(C)c2c1c(C(F)(F)F)cc(=O)n2CC(=O)NCCC(C)C | inactive: 74%
Cc1cccc(-c2nc3scc(CCNS(=O)(=O)c4ccc(Oc5ccccc5)cc4)n3n2)c1 | inactive: 63%
CC1=C(c2ccc(C)cc2)S(=O)(=O)NC1=NCCCN1CCN(c2ccccc2F)CC1 | inactive: 59%
